From patent publication US20080287445A1, “Prokineticin 2 receptor antagonists” (priority 2005, published 2008)

System: rat ileum mucosa

EC50 (read-out: EC50 of PK1-evoked increases in Isc, cumulative concentration-response, basolateral addition): ~8.2 nM
B1: PK1: Recombinant human prokineticin-1 expressed in HEK 293 cells, FLAG epitope cleaved; preparation holds full-length and a four C-terminal residue truncated product (protein, UniProt P58294 20-105, looked up)
Prokineticin-1: AVITGACERDVQCGAGTCCAISLWLRGLRMCTPLGREGEECHPGSHKVPFFRKRKHHTCPCLPNLLCSRFPDGRYRCSMDLKNINF
modifications: mixture with C-terminally truncated product
effect on tissue conductance (G): no significant effect
